Drawing on a collection of fitness landscapes (doi:10.1126/science.1257360), this text covers enrichment ratio for 153 variants.

The chains are these.
B1: PhoQ; a variant is named by its letters at X, in order, P23837 (parent)
chain: MKKLLRLFFPLSLRVRFLLATAAVVLVLSLAYGMVALIGYSVSFDKTTFRLLRGESNLFYTLAKWENNKLHVELPENIDKQSPTMTLIYDENGQLLWAQRDVPWLMKMIQPDWLKSNGFHEIEADVNDTSLLLSGDHSIQQQLQEVREDDDDAEMTHSVAVNVYPATSRMPKLTIVVVDTIPVELKSSYMVWSWFIYVLSANLLLVIPLLWVAAWWSLRPIEALAKEVRELEEHNRELLNPATTRELTSLVRNLNRLLKSERERYDKYRTTLTDLTHSLKTPLXXLQXXLRSLRSEKMSVSDAEPVMLEQISRISQQIGYYLHRASMRGGTLLSRELHPVAPLLDNLTSALNKVYQRKGVNISLDISPEISFVGEQNDFVEVMGNVLDNACKYCLEFVEISARQTDEHLYIVVEDDGPGIPLSKREVIFDRGQRVDTLRPGQGVGLAVAREITEQYEGKIVAGESMLGGARMEVIFGRQHSAPKDE

Some of the results follow. Where only a bound is given, the exact number is not on record here.

Variants of B1 are the subject of the experiment. Description: enrichment ratio after two sorts for PhoP signalling (ratio (wild type AVST 3.29)); higher = more functional. Conditions: with PhoP (E. coli).
For RAPI, the enrichment ratio was at most 0.25.

Take TIWL: the enrichment ratio was at most 0.25.

WDPA: the enrichment ratio was at most 0.25.

As to RQAW, the enrichment ratio is at most 0.25.

Regarding GFQR, the enrichment ratio was at most 0.25.

With RTWI, the enrichment ratio was at most 0.25.

With TAHN, the enrichment ratio is 3.41.

For SVRL, the enrichment ratio is 0.314.

For the variant GRHT, the enrichment ratio was at most 0.25.

For the variant KDSG, the enrichment ratio was at most 0.25.

In the case of FCDY, the enrichment ratio was at most 0.25.

As for GNRN, the enrichment ratio is at most 0.25.

For the variant DVQN, the enrichment ratio is at most 0.25.

LRRM: the enrichment ratio is at most 0.25.

As to QFPH, the enrichment ratio is at most 0.25.

Turning to HEAG, the enrichment ratio is at most 0.25.

As to MGLT, the enrichment ratio is 5.67.

For IGIE, the enrichment ratio is at most 0.25.

DKTS: the enrichment ratio was at most 0.25.

On to GYSA, for which the enrichment ratio is at most 0.25.

With PMEY, the enrichment ratio is at most 0.25.

Regarding KFYW, the enrichment ratio is at most 0.25.

With GLWN, the enrichment ratio was at most 0.25.

Turning to MAHQ, the enrichment ratio is at most 0.25.

For the variant MQRA, the enrichment ratio is at most 0.25.

Take ADYV: the enrichment ratio was at most 0.25.

Regarding NFWP, the enrichment ratio is at most 0.25.

For RNNA, the enrichment ratio is at most 0.25.

Turning to TDER, the enrichment ratio is at most 0.25.

Turning to QFGF, the enrichment ratio was at most 0.25.

As to LQLT, the enrichment ratio is at most 0.25.

On to RQIG, for which the enrichment ratio was at most 0.25.

Take NYCM: the enrichment ratio is at most 0.25.

In the case of PKFY, the enrichment ratio was at most 0.25.

In the case of YRNP, the enrichment ratio is at most 0.25.

Consider TPDY, for which the enrichment ratio is at most 0.25.

Take HEQF: the enrichment ratio is at most 0.25.

On to ALFH, for which the enrichment ratio is at most 0.25.

On to PCNA, for which the enrichment ratio was at most 0.25.

With AVIE, the enrichment ratio was at most 0.25.

NMKW: the enrichment ratio is at most 0.25.

Regarding PAAH, the enrichment ratio is at most 0.25.

VCSF: the enrichment ratio is at most 0.25.

For the variant NEGP, the enrichment ratio was at most 0.25.

Take LLNY: the enrichment ratio is at most 0.25.

Regarding HNPC, the enrichment ratio is at most 0.25.

On to GFDC, for which the enrichment ratio is at most 0.25.

As to LCCN, the enrichment ratio is at most 0.25.

On to IESW, for which the enrichment ratio is at most 0.25.

With RPAS, the enrichment ratio came to 0.311.

As to TAAA, the enrichment ratio came to 0.499.

As to IVWF, the enrichment ratio is at most 0.25.

As to DTDV, the enrichment ratio was at most 0.25.

For the variant YRFH, the enrichment ratio is at most 0.25.

On to ESIN, for which the enrichment ratio is at most 0.25.

For the variant QDGL, the enrichment ratio was at most 0.25.

As for PKCV, the enrichment ratio was at most 0.25.

As to MKGY, the enrichment ratio is at most 0.25.

As for EEQL, the enrichment ratio was at most 0.25.

In the case of FRSM, the enrichment ratio is at most 0.25.

On to GGEV, for which the enrichment ratio was at most 0.25.

Take KYNN: the enrichment ratio is at most 0.25.

Take QMTY: the enrichment ratio is at most 0.25.

Regarding GSFF, the enrichment ratio was at most 0.25.

As to RSSD, the enrichment ratio was at most 0.25.

With GYNF, the enrichment ratio is at most 0.25.

Take THCK: the enrichment ratio was at most 0.25.

Consider SLEN, for which the enrichment ratio is at most 0.25.

For the variant HTVR, the enrichment ratio is at most 0.25.

With SGCH, the enrichment ratio stood at 8.61.

For the variant WFPM, the enrichment ratio was at most 0.25.

On to PELF, for which the enrichment ratio was at most 0.25.

Turning to ASYS, the enrichment ratio is at most 0.25.

Regarding DIIA, the enrichment ratio is at most 0.25.

Regarding PDVK, the enrichment ratio is at most 0.25.

Take DYVV: the enrichment ratio is at most 0.25.

In the case of LDWG, the enrichment ratio is at most 0.25.

For the variant TWIF, the enrichment ratio is at most 0.25.

Take HLPL: the enrichment ratio is at most 0.25.

For the variant VLVQ, the enrichment ratio is at most 0.25.

In the case of EHWT, the enrichment ratio is at most 0.25.

With HTFD, the enrichment ratio was at most 0.25.

As to YQGF, the enrichment ratio was at most 0.25.

For the variant YCFY, the enrichment ratio is at most 0.25.

As to PCDA, the enrichment ratio is at most 0.25.

For IRHR, the enrichment ratio is at most 0.25.

Regarding NLLW, the enrichment ratio is at most 0.25.

HMDV: the enrichment ratio is at most 0.25.

As for VVQF, the enrichment ratio was at most 0.25.

For the variant WCLF, the enrichment ratio is at most 0.25.

Turning to PQFW, the enrichment ratio is at most 0.25.

For the variant YMGP, the enrichment ratio was at most 0.25.

For the variant QNLT, the enrichment ratio was at most 0.25.

As to LLTS, the enrichment ratio was at most 0.25.

For the variant NTLV, the enrichment ratio was at most 0.25.

Turning to NERP, the enrichment ratio is at most 0.25.

Regarding VPTG, the enrichment ratio was at most 0.25.

As for HFPL, the enrichment ratio was at most 0.25.

Consider HGQY, for which the enrichment ratio is at most 0.25.

For the variant DFIT, the enrichment ratio was at most 0.25.

Consider RRID, for which the enrichment ratio is at most 0.25.

As for GTCL, the enrichment ratio is 9.42.

Consider QESP, for which the enrichment ratio is at most 0.25.

Turning to DFDC, the enrichment ratio is at most 0.25.

With NRPY, the enrichment ratio is at most 0.25.

For the variant EEVL, the enrichment ratio was at most 0.25.

Turning to TWAN, the enrichment ratio is at most 0.25.

As for LNYG, the enrichment ratio is at most 0.25.

Take LGAH: the enrichment ratio was at most 0.25.

Take FKSP: the enrichment ratio was at most 0.25.

Take GEQA: the enrichment ratio is at most 0.25.

On to FFCY, for which the enrichment ratio is at most 0.25.

For the variant LHQV, the enrichment ratio is at most 0.25.

With FGHC, the enrichment ratio was at most 0.25.

Consider KTDG, for which the enrichment ratio is at most 0.25.

With VVGQ, the enrichment ratio is at most 0.25.

Take FLAN: the enrichment ratio was at most 0.25.

For the variant VQCF, the enrichment ratio is at most 0.25.

With DMIW, the enrichment ratio was at most 0.25.

As to HKDH, the enrichment ratio was at most 0.25.

Turning to LPFC, the enrichment ratio is at most 0.25.

Take TMGY: the enrichment ratio was at most 0.25.

As to MMPG, the enrichment ratio is at most 0.25.

In the case of KKFF, the enrichment ratio was at most 0.25.

Consider AHDS, for which the enrichment ratio is at most 0.25.

For the variant VMQV, the enrichment ratio is at most 0.25.

With ENHV, the enrichment ratio is at most 0.25.

Consider MKRA, for which the enrichment ratio is at most 0.25.

Turning to EDTS, the enrichment ratio is at most 0.25.

Consider THVK, for which the enrichment ratio was at most 0.25.

As for SIHQ, the enrichment ratio is at most 0.25.

GSMG: the enrichment ratio stood at 4.19.

Regarding ADGN, the enrichment ratio was at most 0.25.

In the case of PNNF, the enrichment ratio is at most 0.25.

For the variant ATYG, the enrichment ratio was at most 0.25.

Regarding HIMV, the enrichment ratio was at most 0.25.

Take KPDD: the enrichment ratio was at most 0.25.

On to PRLH, for which the enrichment ratio is at most 0.25.

As for VWDN, the enrichment ratio was at most 0.25.

WFPT: the enrichment ratio was at most 0.25.

Regarding IAHQ, the enrichment ratio was at most 0.25.

As for KGSL, the enrichment ratio is at most 0.25.

As to YFFY, the enrichment ratio is at most 0.25.

Take WAFT: the enrichment ratio was at most 0.25.

Take KAWQ: the enrichment ratio was at most 0.25.

With YSAG, the enrichment ratio was at most 0.25.

On to LDIE, for which the enrichment ratio is at most 0.25.

As for KRFI, the enrichment ratio is at most 0.25.

On to ELRW, for which the enrichment ratio was at most 0.25.

Turning to IIHK, the enrichment ratio was at most 0.25.

Take HRIP: the enrichment ratio was at most 0.25.

In the case of RFIR, the enrichment ratio was at most 0.25.

QLIL: the enrichment ratio was at most 0.25.
